{"source": "PubChem BioAssay AID588591", "about": "(National Center for Advancing Translational Sciences (NCATS), 2011)", "note": "“And” between values parts separate entries of the source, which are not always exact repeats. Equal values may be shown once. About 4,700 (1.2%) of roughly 390,000 compounds were called active. Inconclusive results, whose numbers are uncertain, are shown with a selection of clear calls. Calls come from the whole dose curve; as a rule, active = well fitted inhibition curve with a large enough effect; inconclusive = small, poorly fitted or top-dose-only effect, or another doubt; inactive = no such curve, though single readings can be large or run the other way. Potencies of inconclusive entries are doubtful fits and often do not repeat. Potency is the fitted concentration of half-maximal effect; tags give direction and shape of the fitted curve."}
{"target": "DNA polymerase eta (Homo sapiens) (UniProt Q9Y253)", "sequence (Q9Y253 whole entry, looked up)": "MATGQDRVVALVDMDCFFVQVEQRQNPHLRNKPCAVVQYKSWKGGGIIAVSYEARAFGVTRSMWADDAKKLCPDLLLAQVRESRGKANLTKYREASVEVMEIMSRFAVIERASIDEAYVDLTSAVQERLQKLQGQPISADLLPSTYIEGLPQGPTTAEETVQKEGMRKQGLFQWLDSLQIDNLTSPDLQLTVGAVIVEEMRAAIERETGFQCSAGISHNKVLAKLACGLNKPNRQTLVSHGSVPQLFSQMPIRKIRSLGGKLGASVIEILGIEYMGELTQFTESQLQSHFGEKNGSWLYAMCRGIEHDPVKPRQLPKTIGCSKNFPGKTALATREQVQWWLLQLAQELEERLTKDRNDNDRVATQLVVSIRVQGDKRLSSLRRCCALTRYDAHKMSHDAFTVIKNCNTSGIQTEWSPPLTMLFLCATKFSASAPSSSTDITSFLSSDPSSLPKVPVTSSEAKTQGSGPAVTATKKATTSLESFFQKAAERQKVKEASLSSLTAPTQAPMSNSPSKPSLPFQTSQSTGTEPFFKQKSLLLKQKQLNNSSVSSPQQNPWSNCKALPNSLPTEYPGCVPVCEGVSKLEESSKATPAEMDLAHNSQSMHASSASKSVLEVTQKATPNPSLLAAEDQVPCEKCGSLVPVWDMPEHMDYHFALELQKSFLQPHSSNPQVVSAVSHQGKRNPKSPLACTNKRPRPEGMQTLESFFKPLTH", "assay": "qHTS for Inhibitors of Polymerase Eta", "conditions": "recombinant Pol eta, fluorescent DNA replication assay; series mostly up to 114 µM", "outline": "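Fluorescent replication assay: 50 nM final substrate added after a 15 min room-temperature compound preincubation with 10 nM enzyme. Signal taken at 0 min and again at 10 min.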"}
{"smiles": "C/C(=N\\Nc1ccc(Cl)c(C(=O)O)c1)c1cccc2ccccc12", "Potency": "active: 7.94 µM"}
{"smiles": "CCc1ccc(Oc2c(C(F)(F)F)oc3c(CN4CCCC(C)C4)c(O)ccc3c2=O)cc1", "note": "(centres undefined)", "Potency": "inactive"}
{"smiles": "CC(Sc1oc(-c2cccs2)nc1S(=O)(=O)c1ccccc1)c1ccccc1", "note": "(centres undefined)", "Potency": "inconclusive: 100 µM [inhibitor, partial curve, poor fit]"}
{"smiles": "COC(=O)c1ccc(/C=N/NC(=S)NC(C)C)cc1", "Potency": "inconclusive: 100 µM [inhibitor, partial curve, poor fit]"}
{"smiles": "COc1ccc(/C=N/Nc2cc(C)nc3ccc(Br)cc23)cc1", "Potency": "inactive"}
{"smiles": "COc1ccc(OC)c(NC(=O)CSc2nnc(C)n2Cc2ccccc2)c1", "Potency": "inactive"}
{"smiles": "Cc1ccc(S(=O)(=O)NCC(=O)NCC2CCCCC2)cc1C", "Potency": "inconclusive: 100 µM [inhibitor, partial curve, poor fit]"}
{"smiles": "C[C@H](CO)N1C[C@H](C)[C@@H](CN(C)Cc2ccc(-c3ccccc3)cc2)Oc2c(NS(=O)(=O)c3ccc(F)cc3)cccc2C1=O", "Potency": "inconclusive: 79.4 µM [inhibitor, partial curve, poor fit]"}
{"smiles": "COC(=O)CN1C(=O)CSc2ccc(S(=O)(=O)Nc3cccc(Cl)c3C)cc21", "Potency": "inactive"}
{"smiles": "CCOc1ccc(NS(=O)(=O)c2ccc3[nH]cc(C(=O)NCC4CCCO4)c(=O)c3c2)cc1", "note": "(centres undefined)", "Potency": "inconclusive: 79.4 µM [inhibitor, partial curve] and inconclusive: 17.8 µM [inhibitor, partial curve, poor fit]"}
{"smiles": "CCOc1ccccc1NC(=O)C(C)N(c1ccccc1)S(C)(=O)=O", "note": "(centres undefined)", "Potency": "inactive"}
{"smiles": "Cc1ccc(NCCC(=O)c2ccc(Cl)cc2)cc1C", "Potency": "inactive"}
{"smiles": "O=C(N/N=C\\c1cccc(Cl)c1)c1ccc(Cn2cc(Br)c([N+](=O)[O-])n2)o1", "Potency": "inconclusive: 28.2 µM [inhibitor, partial curve, poor fit]"}
{"smiles": "O=C(O)c1ccc(NC2=C/C(=N/S(=O)(=O)c3ccccc3)c3ccccc3C2=O)cc1", "Potency": "active: 8.91 µM"}
{"smiles": "C/C(=N\\NC(=O)CSCc1ccc([N+](=O)[O-])cc1)c1ccccc1O", "Potency": "inconclusive: 89.1 µM [inhibitor, partial curve, poor fit]"}
{"smiles": "CCOC(=O)c1c(S(=O)(=O)NCC(=O)NCc2ccccc2)c(C)n(C)c1C", "Potency": "inconclusive: 56.2 µM [inhibitor, partial curve, poor fit]"}
{"smiles": "COc1ccccc1NC(=O)CSc1sc2c(O)cc(=O)[nH]c2c1C#N", "Potency": "active: 20 µM"}
{"smiles": "CN(CCCC1CCCC1)C(=O)CC1C(=O)NCCN1Cc1ccc(F)cc1", "note": "(centres undefined)", "Potency": "inconclusive: 89.1 µM [inhibitor, partial curve, poor fit]"}
{"smiles": "COC(=O)c1ccc(CC(=O)c2c(C)cc(O)cc2O)o1", "Potency": "inconclusive: 56.2 µM [inhibitor, partial curve, poor fit]"}
{"smiles": "COc1ccc(S(=O)(=O)c2cnc(SCC(=O)Nc3cc(F)ccc3C)[nH]c2=O)cc1Cl", "Potency": "inconclusive: 100 µM [inhibitor, single point]"}
{"smiles": "CC1CCN(C2=C(NS(=O)(=O)c3ccccc3)C(=O)c3ccccc3C2=O)CC1", "Potency": "inactive"}
{"smiles": "O=C(Nc1ccc(Cl)c(S(=O)(=O)N2CCCC2)c1)c1nn(CCO)c(=O)c2ccccc12", "Potency": "inconclusive: 31.6 µM [inhibitor, single point]"}
{"smiles": "Cc1ccc(-c2ccc(/C=N\\NC(=O)c3cc4c(ccc5ccccc54)o3)o2)cc1[N+](=O)[O-]", "Potency": "inconclusive: 2.51 µM [inhibitor, full curve, poor fit]"}
{"smiles": "O=c1cc(-c2ccccc2)c2c(O)cc(O)cc2o1", "Potency": "inactive"}
{"smiles": "CC(C)OC1(c2ccccc2)OC(=O)c2ccccc21", "note": "(centres undefined)", "Potency": "inconclusive: 56.2 µM [inhibitor, partial curve, poor fit]"}
{"smiles": "COc1ccccc1NC(=O)C1=C(C)NC(=O)NC1c1ccco1", "note": "(centres undefined)", "Potency": "inconclusive: 100 µM [inhibitor, partial curve, poor fit]"}
{"smiles": "O=C(O)c1cc(N/N=C2/CC(c3ccccc3)Oc3ccccc32)ccc1Cl", "note": "(centres undefined)", "Potency": "active: 20 µM"}
{"smiles": "O=C(COC(=O)CNC(=O)c1ccccc1F)Nc1ncc(Cl)cc1Cl", "Potency": "active: 50.1 µM"}
{"smiles": "Cc1ccc(Oc2nnc(-c3ccccc3)cc2C#N)cc1", "Potency": "inconclusive: 39.8 µM [inhibitor, single point]"}
{"smiles": "O=C(O)CCCn1cc(NC(=O)c2sc3ccccc3c2Cl)cn1", "Potency": "inactive"}
{"smiles": "O=C(COc1ccc(Cl)cc1Cl)NC(=S)Nc1ccc(CN2CCOCC2)cc1", "Potency": "inconclusive: 79.4 µM [inhibitor, partial curve, poor fit]"}
{"smiles": "O=C(Nc1cccnc1)c1cc2nc(C3CC3)cc(C(F)(F)F)n2n1", "Potency": "inconclusive: 28.2 µM [inhibitor, single point]"}
{"smiles": "Cc1cccc(C(=O)Nc2cccc(OCc3cc(=O)n4c(C)csc4n3)c2)c1", "Potency": "inactive"}
{"smiles": "COc1cccc2c1NC(C(=O)O)C1CC=CC21", "note": "(centres undefined)", "Potency": "active: 2.51 µM"}
{"smiles": "CC1CCCC(NC(=S)Nc2ccc(SC(F)F)cc2)C1C", "note": "(centres undefined)", "Potency": "inconclusive: 89.1 µM [inhibitor, partial curve, poor fit]"}
{"smiles": "COc1cc(/C=N/NC(=O)c2ccc3c(c2)OCO3)ccc1O", "Potency": "inactive"}
{"smiles": "COc1cc(/C=C2/C(=O)c3cccc([N+](=O)[O-])c3C2=O)c(Br)cc1O", "Potency": "active: 25.1 µM"}
{"smiles": "Oc1c(Cl)cc(Cl)cc1C=Nc1ccc(Br)cc1", "Potency": "inconclusive: 22.4 µM [inhibitor, partial curve, poor fit]"}
{"smiles": "COc1cc2c(cc1NC(=O)c1cccc([N+](=O)[O-])c1)oc1ccccc12", "Potency": "inconclusive: 6.31 µM [inhibitor, partial curve]"}
{"smiles": "CCCCN(C(=O)c1cc2c(s1)CCC2)c1c(N)n(CCC)c(=O)[nH]c1=O", "Potency": "active: 12.6 µM"}
{"smiles": "CC(C)CCNc1nc(-c2ccco2)c2c(c1C#N)CCCC2", "Potency": "inconclusive: 79.4 µM [inhibitor, partial curve, poor fit]"}
{"smiles": "CCn1c(CCCOc2ccc(Cl)cc2Cl)nnc1SCC(=O)Nc1cc(F)ccc1C", "Potency": "inconclusive: 79.4 µM [inhibitor, partial curve, poor fit]"}
{"smiles": "N#Cc1c(NC(=O)CSc2n[nH]c(Cc3ccccc3)n2)oc(-c2ccccc2)c1-c1ccccc1", "Potency": "inconclusive: 28.2 µM [inhibitor, partial curve, poor fit]"}
{"smiles": "CN(C)S(=O)(=O)c1cccc(-c2nn(-c3ccccc3)cc2/C=C2\\SC(=S)NC2=O)c1", "Potency": "active: 14.1 µM"}
{"smiles": "CC(C(=O)Nc1ccc(C(=O)O)c(O)c1)N1C(=O)/C(=C\\c2ccco2)SC1=S", "note": "(centres undefined)", "Potency": "active: 3.16 µM"}
{"smiles": "CN(CC(=O)Nc1cccc(F)c1)C(=O)c1sccc1-c1ccccc1", "Potency": "inconclusive: 100 µM [inhibitor, partial curve, poor fit]"}
{"smiles": "Cc1cc(Br)ccc1Nc1nc(N)nc(N)c1N=O", "Potency": "inconclusive: 20 µM [inhibitor, full curve, poor fit]"}
{"smiles": "O=C(Nc1ccc2[nH]c(=S)sc2c1)Nc1ccccc1F", "Potency": "active: 79.4 µM"}
{"smiles": "Cc1cc(/C=C2\\C(=N)N3N=C(CC(=O)N4CCOCC4)SC3=NC2=O)c(C)n1-c1ccccc1", "Potency": "inconclusive: 31.6 µM [inhibitor, single point]"}
{"smiles": "Cc1ccc2c(c1)c(C)cc(=O)n2CCC(=O)O", "Potency": "inactive"}
{"smiles": "COc1ccccc1OC(=O)c1cc2ccccc2oc1=O", "Potency": "inactive"}
{"smiles": "O=C(/C=C/c1ccc2c(c1)OCO2)NCc1ccco1", "Potency": "inconclusive: 22.4 µM [inhibitor, single point]"}
{"smiles": "CSc1nsc(SCC(=O)Nc2ccc(F)cc2)n1", "Potency": "inactive"}
{"smiles": "Cc1cccc(Nc2nc(N)c([N+](=O)[O-])c(N3CC(C)OC(C)C3)n2)c1", "note": "(centres undefined)", "Potency": "inconclusive: 79.4 µM [inhibitor, partial curve, poor fit]"}
{"smiles": "COc1ccccc1-c1cc(C(=O)N/N=C/c2ccc(C)o2)c2ccccc2n1", "Potency": "inactive"}
{"smiles": "CCCOc1ccc(/C(O)=C2/C(=O)C(=O)N(c3ccccn3)C2c2ccc(OC)cc2)cc1C", "note": "(centres undefined)", "Potency": "inconclusive: 56.2 µM [inhibitor, partial curve, poor fit]"}
{"smiles": "O=C(COc1ccc(/C=N/NC(=O)c2ccc(O)cc2)cc1)Nc1cccc([N+](=O)[O-])c1", "Potency": "active: 14.1 µM"}
{"smiles": "COc1ccccc1Nc1ncnc2c1nc1n2CCCC1", "Potency": "inconclusive: 79.4 µM [inhibitor, partial curve, poor fit]"}
{"smiles": "Cc1ccc2oc(=O)c3cc(C(=O)NCCN4CCN(C)CC4)sc3c2c1", "Potency": "inconclusive: 100 µM [inhibitor, partial curve, poor fit]"}
{"smiles": "CCOc1ccc(S(=O)(=O)N2CCCCC2)cc1NC(=O)Cc1cccs1", "Potency": "inconclusive: 7.08 µM [inhibitor, partial curve]"}
{"smiles": "COc1ccc(N2Cc3cccc(C(=O)NC(C)CCc4ccco4)c3C2=O)cc1", "note": "(centres undefined)", "Potency": "active: 22.4 µM"}
{"smiles": "CCCCC/C=C\\C/C=C\\C/C=C\\CCCCC(=O)O", "Potency": "active: 20 µM"}
{"smiles": "CCOc1ccccc1CNC(=O)CN1C(=O)CCc2cc(S(=O)(=O)N3CCCCC3)ccc21", "Potency": "inactive"}
{"smiles": "COc1cc(OC)c(Nc2ncnc3onc(-c4cccc(Cl)c4)c23)cc1Cl", "Potency": "inactive"}
{"smiles": "COc1ccc(Cl)cc1NC(=O)c1c(NCc2ccc(C)o2)sc2c1CCCC2", "Potency": "active: 50.1 µM"}
{"smiles": "Cc1ccc(C(=O)c2coc3c2C(=O)C(=O)c2ccccc2-3)cc1", "Potency": "inactive"}
{"smiles": "COc1cc(C2NC(=O)NC(c3ccccc3)=C2C(C)=O)cc(Cl)c1OCC(=O)O", "note": "(centres undefined)", "Potency": "active: 28.2 µM"}
{"smiles": "COC(=O)C1CCN(C(=O)c2cc(-c3ccco3)nc3ccccc23)CC1", "Potency": "active: 8.91 µM"}
{"smiles": "CCOCCCn1c(SC(C)C(=O)NCC2CCCO2)nc2sc(C)c(C)c2c1=O", "note": "(centres undefined)", "Potency": "inconclusive: 100 µM [inhibitor, single point]"}
